According to paper PMC7506137, “Selective Phosphodiesterase 1 Inhibitor BTTQ Reduces Blood Pressure in Spontaneously Hypertensive and Dahl Salt Sensitive Rats: Role of Peripheral Vasodilation” (Frontiers in Physiology, 2020):
Several values for one entry are separate records, joined by “and”; a condition that tells them apart may be missing. Identical values can stand only once. The source gives many values for each of these; only a part stands here.

Experiment: Plasma exposure (dried blood spot) after single oral dose
Type: in vivo
Details: rat; for Unbound Concentration, individual animals: FU 0.053; for Concentration, individual animals: dried blood spot
Method: Male Sprague Dawley rats at 6 to 7 weeks were dosed orally by p.o. gavage with different doses of BTTQ formulated in 1% hydroxyethlycellulose (Dow Corning, Midland, MI, United States) (w/v), 0.25% polysorbate 80 (Sigma-Aldrich, St. Louis, MO, United States) (v/v), and 0.05% antifoam (v/v; Dow Corning, Midland, MI, United States) in purified water. Following dosing, ear temperature was measured by using a k-type thermocouple probe digital thermometer (Cole Parmer) every hour for 6 h and then at 24 h. Blood samples for plasma exposure measurement were obtained at the same time. Blood was collected via a tail snip directly into a 20-μL EDTA-coated capillary and immediately spotted onto a Whatman DMPK-C DBS card (GE Healthcare Bio-Sciences). Tail snips were performed by removing approximately 1 mm of the tail by using a scalpel. Blood flow was initiated by gentle squeezing of the tail. No analgesia or anesthesia was used during blood collections. A single sample and spot were collected per time point. The DBS cards were allowed to dry for approximately 2 h at room temperature, after which the cards were placed in a zip-top bag, stored, and shipped at ambient temperature.

[1] = oral 0.03 mg/kg, 1 h, 0.03 mg/kg
[2] = oral 0.03 mg/kg, 2 h, 0.03 mg/kg
[3] = oral 0.03 mg/kg, 3 h, 0.03 mg/kg
[4] = oral 0.03 mg/kg, 4 h, 0.03 mg/kg

- Unbound Concentration, individual animals [4]: 1.87 nM and 2.05 nM and 1.74 nM (2×)
- Unbound Concentration, individual animals (oral 0.3 mg/kg, 5 h, 0.3 mg/kg): 9.96 nM and 8.69 nM
- Concentration, individual animals (oral 0.3 mg/kg, 5 h, 0.3 mg/kg): 151 nM (2×) and 188 nM and 164 nM
- Unbound Concentration, individual animals (oral 0.3 mg/kg, 6 h, 0.3 mg/kg): 7.26 nM and 5.26 nM and 6.94 nM (2×)
- Concentration, individual animals (oral 0.3 mg/kg, 6 h, 0.3 mg/kg): 137 nM and 99.3 nM and 131 nM (2×)
- Unbound Concentration, individual animals (oral 1 mg/kg, 2 h, 1 mg/kg): 105 nM and 118 nM and 64.7 nM and 62 nM
- Concentration, individual animals (oral 1 mg/kg, 6 h, 1 mg/kg): 747 nM and 728 nM and 750 nM and 894 nM
- Unbound Concentration, individual animals (oral 3 mg/kg, 1 h, 3 mg/kg): 190 nM and 257 nM and 218 nM and 178 nM
- Unbound Concentration, individual animals (oral 3 mg/kg, 2 h, 3 mg/kg): 151 nM and 173 nM and 298 nM and 189 nM
- Unbound Concentration, individual animals (oral 3 mg/kg, 3 h, 3 mg/kg): 125 nM and 160 nM and 208 nM and 178 nM
- Unbound Concentration, individual animals (oral 3 mg/kg, 4 h, 3 mg/kg): 101 nM and 135 nM and 189 nM and 158 nM
- Unbound Concentration, individual animals (oral 3 mg/kg, 5 h, 3 mg/kg): 92.8 nM and 105 nM and 125 nM and 110 nM
Structure (SMILES): O=c1c2nnc(C3(C4CC4)CC3)n2c2c(n1CC1CC1)CCCC2 [BTTQ, 1-[1,1′-bi(cyclopropyl)-1-yl]-5-(cyclopropylmethyl)-6,7,8,9-tetrahydro[1,2,4]triazolo[4,3-A]quinoxaline-4(5H)-one]
- Unbound Concentration, individual animals [1]: 1.57 nM and 3.56 nM and 2.89 nM and 2.26 nM and 2.32 nM
- Concentration, individual animals [1]: 29.6 nM and 67.1 nM and 54.5 nM and 42.7 nM and 43.7 nM
- Unbound Concentration, individual animals [2]: 3.1 nM and 3.05 nM and 2.63 nM and 2.35 nM
- Concentration, individual animals [2]: 58.4 nM and 57.5 nM and 49.7 nM and 44.4 nM
- Unbound Concentration, individual animals [3]: 2.34 nM and 2.11 nM and 2.53 nM and 2.14 nM
- Concentration, individual animals [3]: 44.1 nM and 39.8 nM and 47.7 nM and 40.4 nM
- Concentration, individual animals [4]: 35.2 nM and 38.7 nM and 32.8 nM and 32.9 nM
- Unbound Concentration, individual animals (oral 1 mg/kg, 1 h, 1 mg/kg): 74.7 nM and 137 nM and 118 nM and 65.2 nM and 67.8 nM
- Concentration, individual animals (oral 1 mg/kg, 1 h, 1 mg/kg): 1410 nM and 2590 nM and 2220 nM and 1230 nM and 1280 nM
- Concentration, individual animals (oral 1 mg/kg, 2 h, 1 mg/kg): 1980 nM and 2230 nM and 1220 nM and 1170 nM
- Unbound Concentration, individual animals (oral 1 mg/kg, 3 h, 1 mg/kg): 75.3 nM and 73.7 nM and 48.9 nM and 48.4 nM
- Concentration, individual animals (oral 1 mg/kg, 3 h, 1 mg/kg): 1420 nM and 1390 nM and 923 nM and 914 nM
- Unbound Concentration, individual animals (oral 1 mg/kg, 4 h, 1 mg/kg): 67.3 nM and 73.7 nM and 47.9 nM and 49.7 nM
- Concentration, individual animals (oral 1 mg/kg, 4 h, 1 mg/kg): 1270 nM and 1390 nM and 903 nM and 937 nM
- Unbound Concentration, individual animals (oral 1 mg/kg, 5 h, 1 mg/kg): 63.1 nM and 61.5 nM and 43.6 nM and 38.6 nM
- Concentration, individual animals (oral 1 mg/kg, 5 h, 1 mg/kg): 1190 nM and 1160 nM and 822 nM and 728 nM
- Unbound Concentration, individual animals (oral 1 mg/kg, 6 h, 1 mg/kg): 39.6 nM and 38.6 nM and 39.8 nM and 47.4 nM
- Unbound Concentration, individual animals (oral 1 mg/kg, 24 h, 1 mg/kg): 0.933 nM and 1.39 nM and 1.9 nM and 3.3 nM and 3.12 nM
- Concentration, individual animals (oral 1 mg/kg, 24 h, 1 mg/kg): 17.6 nM and 26.2 nM and 35.9 nM and 62.3 nM and 58.8 nM
- Concentration, individual animals (oral 3 mg/kg, 1 h, 3 mg/kg): 3580 nM and 4850 nM and 4110 nM and 3350 nM
- Concentration, individual animals (oral 3 mg/kg, 2 h, 3 mg/kg): 2840 nM and 3270 nM and 5630 nM and 3560 nM
- Concentration, individual animals (oral 3 mg/kg, 3 h, 3 mg/kg): 2350 nM and 3020 nM and 3920 nM and 3360 nM
- Concentration, individual animals (oral 3 mg/kg, 4 h, 3 mg/kg): 1910 nM and 2540 nM and 3570 nM and 2990 nM
- Concentration, individual animals (oral 3 mg/kg, 5 h, 3 mg/kg): 1750 nM and 1990 nM and 2350 nM and 2080 nM
- Unbound Concentration, individual animals (oral 3 mg/kg, 6 h, 3 mg/kg): 68.4 nM and 91.2 nM and 93.8 nM and 116 nM
- Concentration, individual animals (oral 3 mg/kg, 6 h, 3 mg/kg): 1290 nM and 1720 nM and 1770 nM and 2190 nM
- Unbound Concentration, individual animals (oral 3 mg/kg, 24 h, 3 mg/kg): 5.41 nM and 1.26 nM and 16.1 nM and 1.52 nM and 0.716 nM
- Concentration, individual animals (oral 3 mg/kg, 24 h, 3 mg/kg): 102 nM and 23.7 nM and 303 nM and 28.6 nM and 13.5 nM
